In this experiment the target is T1, GST-DMAP1 (UniProt Q9NPF5).
T1 construct: DMAP1, recombinant; also called recombinant GST-DMAP1; purified DMAP1; source: expressed in bacteria and purified
Nature of the experiment: pull-down; purified GST-DMAP1 mixed with purified His-Bub3 (WT or mutant) immobilised on agarose beads, with or without purified p38, with or without c-Src; called GST pull down. Particulars: both partners purified.

B1: His-Bub3 S211D (natural protein)
chain: not shown
notes: Bub3, recombinant, Ser211 to aspartate (phospho-mimic); also called phosphor-mimic mutant His-Bub3 S211D; source: expressed in bacteria and purified
Regarding B1, the binding result is given as “binds”.

The record behind these values is PMC6295060, “C-Src confers resistance to mitotic stress through inhibition DMAP1/Bub3 complex formation in pancreatic cancer” (Molecular Cancer, 2018).
